Experimental data published in patent US6306899A (priority 1999, dated 2001).
Where two headings read alike, the source gives them in different places.

How the values were obtained:
HSV-1 = test: microbe, parasite or virus in culture; type: cell-based
HSV-II = test: microbe, parasite or virus in culture; type: cell-based
HSV-I TK strain = test: microbe, parasite or virus in culture; type: cell-based
HBV = settings: 2.2.15 cells, 8640 min
Procedure: (§1) The biological activity of the present compounds was assessed as described by Doong, S-L, et al., Proc. Natl. Acad. Sci. U.S.A 88, 8495-8499 (1991). The human hepatoma cell line carrying HBV (cell line designated 2.2.15) provided by Dr. G. Aces was used in the study. Price, et al., Proc. Natl. Acad. Sci. U.S.A. 86, 8541 (1989). Briefly, six day-old cultures were treated with varying concentrations of the drug in the culture medium (Minimum essential medium with Earl's salts and 10% fetal bovine serum). The drug was left in the culture medium for a period of 3 days after which period the medium was aspirated and fresh medium containing the same concentration(s) of the drug was added. […] Inhibition of the viral replication was determined by the comparison of the viral DNA from drug-treated versus control cultures not treated with the drug. In addition, supernatant obtained from the polyethylene glycol precipitation of the cell culture medium (above) was measured for the presence of two HBV antigens (HBsAg and HBeAg) using enzyme immunoassay kits from Abbott Laboratories, Inc. [HBs (rDNA) EIA and HBe (rDNA)EIA], pursuant to standard practice (FIG. 3A). RNA levels were determed using Northern analysis with cellular albumin RNA being measured as a load control to standardize the quality of the HBV RNA measurement (FIG. 3B).

HBsAg = settings: read-out: Anti-viral activity (ED50) HbsAg; 2.2.15 cells; 8640 min
Procedure: as §1

Row | Structure (SMILES) | activity against HSV-I (HSV-1) | activity against HSV-II (HSV-II) | also measured
1 | O=C1OCc2c1cc1c(Br)cc3c(c1c2-c1cc2c(cc1Br)OCO2)OCO3 [ZHU-IX-143, 8,2'-dibromo-5,6-methylenedioxy-4-(4',5'-methylenedioxyphenyl)-3-hydroxymethylnapthalene-2-carboxylic acid lactone] | inactive | inactive | 
2 | Cc1c(CO)cc2ccc3c(c2c1-c1ccc2c(c1)OCO2)OCO3 [ZHU-IX-122-1, 3-methyl-5,6-methylenedioxy-4-(3',4'-methylenedioxyphenyl)-2-hydroxymethylnapthalene] | inactive | inactive | 
3 | O=C1OC(=O)c2c1cc1cc3c(cc1c2-c1cc2c(cc1Br)OCO2)OCO3 [ZHU-IX-120-3, 6,7-methylenedioxy-1-(2'-bromo-4',5'-methylenedioxyphenyl)napthalene-2,3-dicarboxylic acid anhydride] | inactive | inactive | 
4 | O=C1OCc2c1cc1ccc3c(c1c2-c1ccc2c(c1)OCO2)OCO3 [Compound 145, 7,8-methylenedioxy-1-(3',4'-methylenedioxyphenyl)-2-hydroxymethylnaphthalene-3-carboxylic acid lactone] |  |  | EC50 (HSV-1; Human alphaherpesvirus 1, read-out: ED50 against HSV-1): 1.1 µM; activity against HSV-I (HSV-1; in words): showed anti-HSV activity; EC50 (HSV-II; Human alphaherpesvirus 2, read-out: ED50 against HSV-II): 1.8 µM; activity against HSV-II (HSV-II; in words): showed anti-HSV activity; EC50 (HSV-I TK strain; Human alphaherpesvirus 1, read-out: ED50 against HSV-I TK strain): 8.5 µM; activity against HSV TK minus strain (HSV-I TK strain; in words): showed anti-HSV activity
5 | O=C1OCc2cc3ccc4c(c3c(-c3ccc5c(c3)OCO5)c21)OCO4 [ZHU-IX-139-2, 7,8-methylendioxy-1-(3',4'-methylenedioxyphenyl)-3-hydroxymethylnapthalene-2-carboxylic acid lactone] | inactive | inactive | 
6 | Cc1c(C(=O)O)cc2ccc3c(c2c1-c1ccc2c(c1)OCO2)OCO3 [ZHU-X-4] | inactive | inactive | 
7 | O=C1OC(=O)c2c1cc1c(Br)cc3c(c1c2-c1cc2c(cc1Br)OCO2)OCO3 [ZHU-IX-120-1, 5-bromo-7,8-methylenedioxy-1-(2'-bromo-4',5'-methylenedioxyphenyl)napthalene-2,3-dicarboxylic acid anhydride] | inactive | inactive | 
8 | Cc1c(C=O)cc2ccc3c(c2c1-c1ccc2c(c1)OCO2)OCO3 [ZHU-IX-189, 5,6-methylenedioxy-4-(3',4'-methylendioxyphenyl)-2-methylnapthalene-3-aldehyde] | inactive | inactive | 
9 | O=C1OC(=O)c2c1c(Br)c1cc3c(cc1c2-c1cc2c(cc1Br)OCO2)OCO3 [ZHU-IX-120-2, 1-bromo-6,7-methylenedioxy-4-(2'-bromo-4', 5'-methylenedioxyphenyl)napthalene-2,3-dicarboxylic acid anyhdride] | inactive | inactive | 
10 | OCc1cc2c(Br)cc3c(c2c(-c2ccc4c(c2)OCO4)c1CO)OCO3 [ZHU-IX-135-1, 2,3-dihydroxymethyl-5-bromo-7,8-methylenedioxy-1-(3', 4'-methylenedioxyphenyl)napthalene] | inactive | inactive | 
11 | Cc1c(C(=O)O)cc2ccc3c(c2c1-c1ccc2c(c1)OCO2)OCO3 [ZHU-X-10, sodium 5,6-methylenedioxy-4-(3',4'-methylenedioxyphenyl)-2-methylnapthalene-3-carbonate] |  |  | EC50 (HBV): > 10 µM; EC50 (HBsAg): > 10 µM
12 | OCc1cc2ccc3c(c2c(-c2ccc4c(c2)OCO4)c1CO)OCO3 [ZHU-IX-124-2, 2,3-dihydroxymethyl-5,6-methylenedioxy-4-(3',4'-methylenedioxyphenyl)napthalene] | inactive | inactive | 
